# PubChem BioAssay AID485364 (National Center for Advancing Translational Sciences (NCATS), 2010)
# Screen size: about 360,000 compounds; about 11,000 (3.1%) were called active. Inconclusive means that the source gave no clear call. Such entries were picked first, then a sample of the others. Calls follow the shape of the dose curve; as a rule, active = well fitted inhibition curve with a large enough effect; inconclusive = small, poorly fitted or top-dose-only effect; inactive = no such curve, though single readings can be large or run the other way. Potencies of inconclusive entries are left out as doubtful fits.
# Target: Schistosoma mansoni thioredoxin glutathione reductase (TGR) (UniProt Q962Y6)
# Experiment: qHTS Assay for the Inhibitors of Schistosoma Mansoni Peroxiredoxins; also: nearly all actives have a fitted effect of over 60% in size
# Settings: purified TGR, DTNB reduction, TNB absorbance 405 nm; activity change, negative = inhibition: at 114 µM (top of the series) unless noted
# How it was run: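 First, TGR (20 nM dispensed) and NADPH were mixed with compound. Second, a 15 min room-temperature incubation followed. Third, further NADPH and then DTNB were added to start the reaction. Finally, TNB absorbance was monitored kinetically.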
# % is scaled to controls: 0 for no effect and ±100 for the full control effect; potency is read from the fitted curve at half-maximal effect; tags tell the direction and shape of the fitted curve.
SMILES,"activity change, negative = inhibition",Potency
CCCn1c(SCC(=O)N2CCCc3ccccc32)nc2c1c(=O)n(C)c(=O)n2C,inactive: -15.8%,
Cc1ccnc(NS(=O)(=O)c2ccc(NC(=O)CCc3ccccc3)cc2)n1,inactive: -14.7%,
COc1cc2cc(C(c3nnnn3C3CCCC3)N3CCc4ccccc43)c(=O)[nH]c2cc1OC (centres undefined),,"inconclusive [inhibitor, partial curve]"
CC(C)c1cc(=O)oc2c3c4c(cc12)CCCN4CCC3,,active: 44.7 µM
CC(C)Cc1nnc(NC(=O)CCS(=O)(=O)c2ccc(Cl)cc2)s1,,"inconclusive [inhibitor, partial curve]"
Cc1ccccc1CN1C[C@@H]2C[C@@H](c3cnc(N4CCOCC4)s3)N3CCC[C@@]23C1=O,,active: 15.8 µM
CCOc1ccc(-c2csc3ncn(-c4ccc(OC)cc4)c(=O)c23)cc1,,"inconclusive [inhibitor, single point]"
FC(F)Sc1nnc(-c2cccs2)n1-c1ccccc1,inactive: 7.62%,
CNc1ccc(/C=C(\C#N)C(=O)Nc2ccccn2)cc1[N+](=O)[O-],inactive: 2.75%,
CCOc1cc2[nH]c(=S)n(Cc3ccc(C)o3)c(=O)c2cc1OCC,,"inconclusive [inhibitor, partial curve]"
CCc1ccc(OCC(=O)NCc2ccco2)c(Br)c1,,"inconclusive [inhibitor, partial curve]"
CC(=O)c1cccc(-n2c(=O)c3c4c(sc3n(CC(=O)c3ccc(Cl)cc3)c2=O)CN(C(C)=O)CC4)c1,inactive: 5.27%,
Cc1cc(C)cc(OCC(=O)N/N=C/c2ccc([N+](=O)[O-])o2)c1,,"inconclusive [inhibitor, partial curve, poor fit]"
CCOC(=O)/C=C1\Nc2ccccc2SC1=O,inactive: -12.4%,
Cc1cc2nc(C)n(CCCNC(=O)Nc3ccc(C#N)cc3)c2cc1C,inactive: -10.5%,
O=C(Cc1ccsc1)NNC(=O)c1ccccc1Cl,inactive: 0.959%,
O=C(c1ccc(F)cc1)c1ccc(-c2ccc(F)cc2)nc1,inactive: 10.9%,
CC1(c2cccc(Br)c2)NC(=O)N(CC(=O)N2CCN(C(=O)c3ccco3)CC2)C1=O (centres undefined),,"inconclusive [inhibitor, partial curve]"
O=C(NCc1ccco1)c1ccc(Oc2ccccc2)cc1,,"inconclusive [inhibitor, partial curve]"
COc1cccc(CNC(=O)CCn2c(=O)c3cccn3c3cccnc32)c1OC,inactive: 4.45%,
O=S(=O)(c1ccc2[nH]c3c(c2c1)CCCC3)N1CCCCC1,,"inconclusive [inhibitor, partial curve]"
CC(=O)Nc1ccc(NC(=O)COc2ccc(-c3ccc(C#N)cc3)cc2)cc1,inactive: 0.812%,
O=S(=O)(c1ccc(N2CCC(c3ccc(Cl)cc3)=N2)cc1)N(CCO)CCO,,"inconclusive [inhibitor, full curve]"
O=C1CCN(CCc2ccccc2)CCN1[C@H](CSc1ccccc1)Cc1ccccc1,,"inconclusive [inhibitor, partial curve]"
Cn1c(=O)[nH]c(=O)c2c1nc(SCC(=O)O)n2Cc1ccccc1,inactive: -25.3%,

SMILES,"activity change, negative = inhibition",Potency
COc1ccc(/C=C\c2onc(C)c2S(=O)(=O)N2CCC(C(=O)Nc3ccc(C)cc3C)CC2)cc1,inactive: 4.86%,
O=C(CC1C(=O)NCCN1Cc1ccc(F)cc1)NCCN1CCCc2ccccc21 (centres undefined),,"inconclusive [inhibitor, partial curve]"
O=C(c1ccco1)N1CCN(c2ncnc3c2[nH]c2ccc(Br)cc23)CC1,,"inconclusive [inhibitor, partial curve]"
CCC12CN3CC(C)(CN(C1)C3c1c[nH]c3ccccc13)C2=O (centres undefined),inactive: -2.59%,
CCN(CC)S(=O)(=O)c1ccc(C(=O)/C=C/c2ccc(-c3ccc([N+](=O)[O-])cc3)o2)cc1,,active: 15.8 µM
Cn1c(=O)n(C)c2cc([N+](=O)[O-])c(N3CCN(S(=O)(=O)c4ccc(C(C)(C)C)cc4)CC3)cc21,inactive: 1.12%,
CC(C)c1nnc(NC(=O)CCS(=O)(=O)c2nc(-c3cccs3)cc(C(F)(F)F)n2)s1,,active: 20 µM
CC1=C(C(=O)N2CCOCC2)C(c2ccsc2)C2=C(CCCC2=O)N1 (centres undefined),,active: 44.7 µM
COc1ccccc1CN(C(=O)c1ccco1)C(C(=O)NC1CCCC1)c1ccncc1 (centres undefined),,"inconclusive [inhibitor, partial curve]"
Fc1ccc(-c2nnc(-c3ccc(F)cc3)o2)cc1,inactive: 4.44%,
COc1cc(/C=C2\CCOC2=O)cc(OC)c1OC,inactive: -3.25%,
CSCCC(NC(=O)c1cccc(C)c1)C(=O)Nc1sccc1C(N)=O (centres undefined),,"inconclusive [inhibitor, full curve]"
COc1ccc(-c2nc(CS(=O)CC(=O)N3CCCC3)c(C)o2)cc1 (centres undefined),,active: 7.08 µM
COc1cccc(NC2=C(NCCO)C(=O)c3ccccc3C2=O)c1,inactive: -4.89%,
CCCN(CC(=O)c1cc(C)n(C)c1C)S(=O)(=O)c1cccc(C(F)(F)F)c1,,"inconclusive [inhibitor, partial curve]"
Cc1c(N=Cc2c(O)n(C3CCCCC3)c(=O)[nH]c2=O)c(=O)n(-c2ccccc2)n1C,,"inconclusive [inhibitor, partial curve]"
O=C(CCl)NC(=O)NC12CC3CC(CC(C3)C1)C2,,active: 8.91 µM
Clc1cccc(C2Nc3cccc4cccc(c34)N2)c1,,active: 3.16 µM
CCOC(=O)Cc1csc(NC(=O)c2c(O)c3ccccc3n(C)c2=O)n1,,"inconclusive [inhibitor, partial curve, poor fit]"
CCOC(=O)C1CCN(C(=O)CCC(=O)NNc2nc3ccccc3c3nc(C)nn23)CC1,inactive: -7.39%,
Cc1ccc(C)n1-c1sccc1C(=O)O,,active: 39.8 µM
CCCC(=O)Nc1c2c(nn1-c1ccc(C)cc1C)CSC2,,"inconclusive [inhibitor, partial curve, poor fit]"
C(=C\c1ccccc1)/CSc1nnc(-c2cccnc2)n1Cc1ccco1,,"inconclusive [inhibitor, single point]"
Cc1occc1C(=O)N/N=C/c1sc(N2CCOCC2)nc1-c1ccccc1,,"inconclusive [inhibitor, partial curve]"
